According to the supplement of paper PMC9174493:
Counter-ions that a name gives are not always drawn. The list shows a part of the results. Single values of this set are uncertain. Values with irradiation are relative to irradiated vehicle.

Legend:
[1] = system: A549-Dual; experiment: NF-kB reporter (SEAP) activity, viability-corrected, relative to vehicle (fold change vs vehicle); higher = more activation of STING-IRF / NF-kB immune response reporter
[2] = system: A549-Dual; experiment: ISRE reporter (Lucia luciferase) activity, viability-corrected, relative to vehicle (fold change vs vehicle); higher = more activation of STING-IRF / NF-kB immune response reporter
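For NF-kB reporter (SEAP) activity, viability-corrected, relative to vehicle in this document: viability correction based on the alamar blue assay, with concentrations leaving 10% survival or less dropped.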

| SMILES | NF-kB reporter ([1]; 0.1 µM, irradiation: 8 Gy/4 fr) | NF-kB reporter ([1]; 0.1 µM, irradiation: none) | NF-kB reporter ([1]; 0.3 µM, irradiation: 8 Gy/4 fr) | NF-kB reporter ([1]; 0.3 µM, irradiation: none) | NF-kB reporter ([1]; 1 µM, irradiation: 8 Gy/4 fr) | NF-kB reporter ([1]; 1 µM, irradiation: none) | NF-kB reporter ([1]; 3 µM, irradiation: 8 Gy/4 fr) | NF-kB reporter ([1]; 3 µM, irradiation: none) | NF-kB reporter ([1]; 10 µM, irradiation: 8 Gy/4 fr) | NF-kB reporter ([1]; 10 µM, irradiation: none) | ISRE reporter ([2]; 0.1 µM, irradiation: 8 Gy/4 fr) | ISRE reporter ([2]; 0.1 µM, irradiation: none) | ISRE reporter ([2]; 0.3 µM, irradiation: 8 Gy/4 fr) | ISRE reporter ([2]; 0.3 µM, irradiation: none) | ISRE reporter ([2]; 1 µM, irradiation: 8 Gy/4 fr) | ISRE reporter ([2]; 1 µM, irradiation: none) | ISRE reporter ([2]; 3 µM, irradiation: 8 Gy/4 fr) | ISRE reporter ([2]; 3 µM, irradiation: none) | ISRE reporter ([2]; 10 µM, irradiation: 8 Gy/4 fr) | ISRE reporter ([2]; 10 µM, irradiation: none) |
| --- | --- | --- | --- | --- | --- | --- | --- | --- | --- | --- | --- | --- | --- | --- | --- | --- | --- | --- | --- | --- |
| COc1cc(C2Oc3cc(C4Oc5cc(O)cc(O)c5C(=O)C4O)ccc3OC2CO)ccc1O (stereo not given) [Silibinin] | 1.3 | 1.22 | 0.997 | 1.34 | 0.931 | 1.77 | 1.01 | 1.33 | 0.821 | 1.04 | 1.12 | 1.04 | 1.08 | 1.14 | 1.09 | 1.19 | 1.09 | 0.891 | 0.99 | 1.09 |
| CC(C)(O)CNc1nc(Nc2ccnc(C(F)(F)F)c2)nc(-c2cccc(C(F)(F)F)n2)n1 [Enasidenib (AG-221)] | 0.921 | 0.899 | 0.835 | 1.18 | 0.904 | 1.5 | 0.838 | 1.08 | 0.718 | 0.886 | 0.918 | 1.12 | 0.801 | 1.08 | 0.803 | 1.32 | 0.822 | 1.01 | 0.822 | 0.859 |
| CC#CC(=O)N1CCCC1c1nc(-c2ccc(C(=O)Nc3ccccn3)cc2)c2c(N)nccn12 (stereo not given) [Acalabrutinib (ACP-196)] | 0.885 | 0.898 | 0.829 | 0.874 | 0.905 | 1.02 | 1.04 | 0.998 | 0.951 | 0.842 | 0.933 | 1.13 | 0.939 | 0.883 | 0.976 | 0.737 | 0.945 | 0.782 | 0.867 | 0.674 |
| O=S1(=O)CCN(CN2CCS(=O)(=O)NC2)CN1 [Taurolidine] | 1.19 | 1.41 | 0.979 | 1.44 | 0.984 | 1.82 | 1.14 | 1.44 | 1.11 | 1.11 | 1.09 | 1.39 | 1.07 | 1.22 | 1.09 | 1.33 | 1.2 | 1.04 | 1.05 | 1.04 |
| CC(=O)OC1CCC2(C)C(CCC3(C)C2C(=O)C=C2C4C(C)C(C)CCC4(C)CCC23C)C1(C)C(=O)O (stereo not given) | 1.03 | 1.02 | 1.03 | 0.862 | 1.01 | 0.846 | 1.15 | 0.853 | 2.65 | 1.32 | 1.08 | 0.901 | 1.08 | 0.689 | 0.722 | 0.665 | 0.792 | 0.86 | 0.066 | 0.35 |
| CC(=O)C1CCC2C3CC(C)C4=CC(=O)CCC4(C)C3C(O)CC12C (stereo not given) [Medrysone] | 0.782 | 0.884 | 0.793 | 0.836 | 0.875 | 0.755 | 0.826 | 0.811 | 0.609 | 1.05 | 0.162 | 0.336 | 0.194 | 0.4 | 0.0817 | 0.25 | 0.101 | 0.305 | 0.0556 | 0.236 |
| COC(=O)/C=C/C(=O)OC [Dimethyl Fumarate] | 0.605 | 0.615 | 0.629 | 0.609 | 0.573 | 0.593 | 0.487 | 0.712 | 0.529 | 0.68 | 0.698 | 0.672 | 0.646 | 0.699 | 0.643 | 0.771 | 0.574 | 1.01 | 0.686 | 0.635 |
| CC(=O)c1c(C)c2cnc(Nc3ccc(N4CCNCC4)cn3)nc2n(C2CCCC2)c1=O.Cl | 1.08 | 1.03 | 0.982 | 1.31 | 0.962 | 1.6 | 0.983 | 1.42 | 0.872 | 1.18 | 1.03 | 1.88 | 0.776 | 1.63 | 0.724 | 2 | 1.07 | 1.97 | 1.01 | 2.5 |
| CN1CCC(OC(c2ccccc2)c2ccccc2)CC1.Cl [Diphenylpyraline hydrochloride] | 1.57 | 2.36 | 1.48 | 2.22 | 1.79 | 1.52 | 2.19 | 1.45 | 1.93 | 1.15 | 1.39 | 2.42 | 1.32 | 1.95 | 1.32 | 1.33 | 1.14 | 1.22 | 1.98 | 1.24 |
| CC1OC(n2cc(F)c(=O)[nH]c2=O)C(O)C1O (stereo not given) [Doxifluridine] | 1.01 | 1.27 | 1.2 | 1.64 | 1.58 | 1.12 | 1.93 | 1.11 | 1.15 | 1.2 | 1.07 | 1.15 | 1.06 | 1.25 | 1.06 | 1.07 | 1.1 | 1.02 | 1.08 | 0.762 |
| COc1ccc(-c2ccc3cc(C(=O)O)ccc3c2)cc1C12CC3CC(CC(C3)C1)C2 [Adapalene] | 1.11 | 1.24 | 1.22 | 1.35 | 1.34 | 1.26 | 1.56 | 1.25 | 0.755 | 0.856 | 1.14 | 1.31 | 1.09 | 1.09 | 0.965 | 1.13 | 0.979 | 1.23 | 0.484 | 1.81 |
| CCOC(=O)c1ccc(C#Cc2ccc3c(c2)C(C)(C)CCS3)nc1 [Tazarotene] | 0.922 | 0.816 | 0.792 | 0.906 | 1.01 | 0.761 | 0.75 | 0.725 | 0.706 | 0.995 | 1 | 1.09 | 0.884 | 1.02 | 0.892 | 1.23 | 0.892 | 1.18 | 0.978 | 1.22 |
| CCOC(=O)OC1(C(=O)OCCl)CCC2C3CCC4=CC(=O)C=CC4(C)C3C(O)CC21C (stereo not given) [Loteprednol etabonate] | 0.774 | 1.23 | 0.723 | 1.18 | 1.47 | 1.08 | 1.41 | 0.941 | 0.738 | 0.725 | 0.113 | 0.326 | 0.0993 | 0.429 | 0.0949 | 0.277 | 0.0779 | 0.289 | 0.0754 | 0.203 |
| N.N.O=C([O-])C1(C(=O)[O-])CCC1.[Pt+2] [Carboplatin] | 0.909 | 1 | 0.736 | 0.974 | 0.882 | 1.21 | 0.842 | 1.17 | 0.977 | 1.02 | 0.896 | 1.2 | 0.751 | 0.923 | 0.865 | 0.94 | 0.743 | 0.888 | 0.894 | 0.945 |
| CC(=O)OCC(=O)C1(O)CCC2C3CCC4=CC(=O)CCC4(C)C3(F)C(O)CC21C (stereo not given) [Fludrocortisone acetate] | 0.591 | 0.887 | 0.776 | 0.981 | 1.11 | 0.784 | 0.57 | 0.821 | 0.534 | 0.823 | 0.0955 | 0.285 | 0.11 | 0.369 | 0.0591 | 0.217 | 0.062 | 0.198 | 0.0582 | 0.257 |
| O=C([O-])Cc1ccccc1Nc1c(Cl)cccc1Cl.[K+] [Diclofenac Potassium] | 0.811 | 1.02 | 0.843 | 1.18 | 1.04 | 0.814 | 0.882 | 0.943 | 0.808 | 0.761 | 0.901 | 0.742 | 0.785 | 0.852 | 0.711 | 0.726 | 0.739 | 1.06 | 0.8 | 0.749 |
| CC(=O)OCC(=O)C1(O)C(C)CC2C3CCC4=CC(=O)C=CC4(C)C3(F)C(O)CC21C (stereo not given) [Dexamethasone Acetate] | 0.629 | 0.871 | 0.653 | 1.07 | 1.04 | 0.74 | 0.872 | 0.843 | 0.523 | 0.726 | 0.0547 | 0.221 | 0.0462 | 0.251 | 0.0445 | 0.181 | 0.048 | 0.236 | 0.0551 | 0.338 |
| O=C(O)CCC(=O)c1ccc(-c2ccccc2)cc1 [Fenbufen] | 0.954 | 0.86 | 0.983 | 0.648 | 1.18 | 0.872 | 1.06 | 0.827 | 0.897 | 0.927 | 0.934 | 0.686 | 0.786 | 0.592 | 0.733 | 0.667 | 0.74 | 0.934 | 0.991 | 0.979 |
| CC(C)Cn1cnc2c(N)nc3ccccc3c21 [Imiquimod] | 1.24 | 1.05 | 1.22 | 1.44 | 1.14 | 1.45 | 1.07 | 1.31 | 0.919 | 1.01 | 1.08 | 1.37 | 1.13 | 1.17 | 1.17 | 1.45 | 1.14 | 0.926 | 0.904 | 0.834 |
| Cc1c(Cl)cccc1Nc1ncccc1C(=O)O [Clonixin] | 1.05 | 1.17 | 0.991 | 0.937 | 1.26 | 0.998 | 1.3 | 0.901 | 1.29 | 1.22 | 1.09 | 0.956 | 1.09 | 0.811 | 0.869 | 0.831 | 0.977 | 0.932 | 0.962 | 0.934 |
| Cl.O=C(OCC(O)CO)c1ccccc1Nc1ccnc2cc(Cl)ccc12 (stereo not given) [Glafenine HCl] | 1.1 | 1.31 | 1.33 | 1.06 | 1.23 | 1.09 | 1.18 | 1.06 | 1.23 | 1.4 | 1.21 | 0.946 | 1.09 | 0.854 | 0.748 | 0.834 | 0.864 | 0.831 | 0.734 | 0.76 |
| Cc1cc(S(=O)(=O)[O-])c2c(C)ccc(C(C)C)cc1-2.[Na+] [Sodium gualenate] | 1.02 | 1.08 | 1.21 | 1.01 | 1.09 | 0.698 | 1.14 | 0.935 | 0.601 | 0.413 | 1 | 1.12 | 1.06 | 1.08 | 0.952 | 0.687 | 0.724 | 0.964 | 0.698 | 0.804 |
| CCN(C(=O)c1c(O)c2c(Cl)cccc2n(C)c1=O)c1ccccc1 [Laquinimod] | 1.16 | 1.9 | 1.24 | 1.76 | 1.66 | 1.38 | 1.84 | 1.42 | 0.988 | 0.986 | 0.992 | 1.58 | 0.961 | 1.15 | 0.902 | 1.04 | 0.857 | 0.542 | 0.446 | 0.42 |
| O=C(Nc1cnn2ccc(N3CCCC3c3cc(F)ccc3F)nc12)N1CCC(O)C1.O=S(=O)(O)O (stereo not given) [Larotrectinib (LOXO-101) sulfate] | 1.08 | 1.07 | 0.856 | 1.45 | 1.04 | 1.58 | 0.913 | 1.49 | 0.885 | 1 | 1.12 | 1.12 | 0.878 | 0.999 | 1.06 | 1.08 | 0.965 | 0.9 | 1.08 | 0.854 |
